Source: article PMC9616699, “CVID-Associated B Cell Activating Factor Receptor Variants Change Receptor Oligomerization, Ligand Binding, and Signaling Responses” (Journal of Clinical Immunology, 2022)

B1: BAFFR DUP92-95-GFP fusion protein (receptor, human)
chain: [about 80 residues not given here]FGAPALLGLALVLALVLALVLVGLVSWRRRQRRLRGASSAEAPDGDKDAPEPLDKVIILSPGISDATAPAWPPPGEDPGTTPPGHSVPVPATELGSTELVTTKTAGPEQQ
notes: BAFFR, natural variant with a duplication of four residues in the TM region, printed as LALV from position 92 to 95; both readings give the same product; source: DG-75 BAFFR KO cells, lentiviral gene transfer, on or in cells; not shown: GFP, C-terminal, kept
B2: BAFFR P21R-GFP fusion protein (receptor, human)
chain: [about 80 residues with changes not given here]FGAPALLGLALVLALVLVGLVSWRRRQRRLRGASSAEAPDGDKDAPEPLDKVIILSPGISDATAPAWPPPGEDPGTTPPGHSVPVPATELGSTELVTTKTAGPEQQ
notes: BAFFR, natural variant P21R; source: DG-75 BAFFR KO cells, lentiviral gene transfer, on or in cells; not shown: GFP, C-terminal, kept
B3: BAFFR A52T-GFP fusion protein (receptor, human)
chain: [about 80 residues with changes not given here]FGAPALLGLALVLALVLVGLVSWRRRQRRLRGASSAEAPDGDKDAPEPLDKVIILSPGISDATAPAWPPPGEDPGTTPPGHSVPVPATELGSTELVTTKTAGPEQQ
notes: BAFFR, natural variant A52T; source: DG-75 BAFFR KO cells, lentiviral gene transfer, on or in cells; not shown: GFP, C-terminal, kept
B4: BAFFR G64V-GFP fusion protein (receptor, human)
chain: [about 80 residues with changes not given here]FGAPALLGLALVLALVLVGLVSWRRRQRRLRGASSAEAPDGDKDAPEPLDKVIILSPGISDATAPAWPPPGEDPGTTPPGHSVPVPATELGSTELVTTKTAGPEQQ
notes: BAFFR, natural variant G64V; source: DG-75 BAFFR KO cells, lentiviral gene transfer, on or in cells; not shown: GFP, C-terminal, kept

What follows are binders tested against T1, CD79B-RFP fusion protein (UniProt P40259 29-229) (assay: FRET or BRET; FRET from GFP to RFP read by flow cytometry (percent FRET+ cells) in DG-75 BAFFR KO cells co-expressing WT or variant BAFFR-GFP and CD79B-RFP; without ligand or 1 h after adding 100 ng/ml BAFF). Details: partners not purified.
T1 construct: B cell antigen receptor component CD79B; source: DG-75 BAFFR KO cells, lentiviral transduction, in cells
T1 sequence (looked up): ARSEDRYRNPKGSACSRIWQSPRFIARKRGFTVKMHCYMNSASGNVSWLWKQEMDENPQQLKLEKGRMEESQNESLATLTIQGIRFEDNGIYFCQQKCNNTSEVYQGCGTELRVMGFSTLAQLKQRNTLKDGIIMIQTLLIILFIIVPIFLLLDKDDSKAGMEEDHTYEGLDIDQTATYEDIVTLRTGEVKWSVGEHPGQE

Binder | percent FRET+ cells, without ligand
B1 | 14%
B2 | 18%
B3 | 17%
B4 | 14%
